Measurements as given in US20250121087A1, “ANTIBODY-DRUG CONJUGATES COMPRISING ANTI-B7-H3 ANTIBODIES” (priority 2020, published 2025).

Key:
[1] = biological target: T1, human 4Ig B7-H3 (Homo sapiens, UniProt Q5ZPR3); experiment: Biacore (SPR) binding kinetics, human 4Ig B7-H3; conditions: analyte Human 4IgB7-H3, antibody as immobilized ligand
T1 construct: purchased Y-Biologics Inc
T1 sequence (Q5ZPR3 29-534): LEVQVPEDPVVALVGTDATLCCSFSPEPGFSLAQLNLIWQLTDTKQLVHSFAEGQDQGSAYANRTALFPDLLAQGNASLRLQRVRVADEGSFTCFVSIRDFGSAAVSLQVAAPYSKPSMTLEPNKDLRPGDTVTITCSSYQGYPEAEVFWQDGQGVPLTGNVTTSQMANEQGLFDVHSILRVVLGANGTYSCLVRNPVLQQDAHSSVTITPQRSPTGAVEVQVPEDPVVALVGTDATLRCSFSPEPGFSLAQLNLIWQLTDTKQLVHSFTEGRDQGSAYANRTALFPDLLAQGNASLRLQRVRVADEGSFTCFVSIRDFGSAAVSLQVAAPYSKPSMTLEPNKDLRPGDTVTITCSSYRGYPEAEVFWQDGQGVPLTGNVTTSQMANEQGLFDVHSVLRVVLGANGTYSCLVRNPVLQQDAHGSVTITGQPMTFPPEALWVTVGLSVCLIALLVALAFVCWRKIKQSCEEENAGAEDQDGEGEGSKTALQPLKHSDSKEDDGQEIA
Procedure: (§1) The binding affinity of the purified anti-B7-H3 monoclonal antibodies was determined by BLI-based OCTET or SPR-based Biacore. Further the binding kinetics of the antibodies binding to human, cynomolgus monkey and mouse B7-H3 antigen are shown in Table 37.
(§2) A Biacore 8K (GE Life science) instrument was used to measure the binding kinetics about several B7-H3 variants (analyte) binding to various mAbs (ligands). Antibodies were captured onto the immobilized anti-human Fc antibody (GE Life science). Anti-Fc antibodies were immobilized to approximately 7,000 RU on CM5 sensor chip using a standard amine coupling method on both active cell and reference cell. For binding kinetic measurements, the HBS-EP+ was used for running buffer (10 mM Hepes, pH7.4, 150 mM NaCl, 3 mM EDTA, 0.05% polysorbate20). Anti-B7-H3 antibodies were diluted to 0.5 ug/mL in running buffer and injected for 110 s on active cells only. After capturing ligand, various B7-H3 antigens were analyzed for 120 s and the dissociation was monitored for 600 s at a flow rate of 30 ul/min. […] Kinetic information was calculated by fitting data to a 1:1 binding model using Biacore Insight Evaluation software (GE Life Science) to determine ka (association constant), kd (dissociation constant), and KD (equilibrium dissociation constant).

[2] = biological target: T2, human 2Ig B7-H3 (Homo sapiens, UniProt Q5ZPR3); experiment: Biacore (SPR) binding kinetics, human 2Ig B7-H3; conditions: analyte Human 2IgB7-H3, antibody as immobilized ligand
T2 construct: purchased Acrobiosystems
T2 sequence (Q5ZPR3 29-316 isoform Q5ZPR3-2 limits assumed): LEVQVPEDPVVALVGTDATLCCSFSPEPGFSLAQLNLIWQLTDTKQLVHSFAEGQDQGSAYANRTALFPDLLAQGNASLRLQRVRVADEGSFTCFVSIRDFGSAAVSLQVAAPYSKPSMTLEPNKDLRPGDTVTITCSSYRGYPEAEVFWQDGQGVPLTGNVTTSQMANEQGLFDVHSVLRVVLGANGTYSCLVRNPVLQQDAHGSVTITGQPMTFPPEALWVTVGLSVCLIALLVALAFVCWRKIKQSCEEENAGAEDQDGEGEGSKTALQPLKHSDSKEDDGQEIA
Procedure: as §1, §2

[3] = test system: cynomolgus monkey B7-H3; experiment: Biacore (SPR) binding kinetics, cynomolgus monkey B7-H3; conditions: analyte Cyno B7-H3, antibody as immobilized ligand
Procedure: as §1, §2

[4] = biological target: T3, mouse B7-H3 (Mus musculus, UniProt Q8VE98); experiment: Biacore (SPR) binding kinetics, mouse B7-H3; conditions: analyte Mouse B7-H3, antibody as immobilized ligand
T3 construct: purchased Sino biological Inc
T3 sequence (Q8VE98 29-316): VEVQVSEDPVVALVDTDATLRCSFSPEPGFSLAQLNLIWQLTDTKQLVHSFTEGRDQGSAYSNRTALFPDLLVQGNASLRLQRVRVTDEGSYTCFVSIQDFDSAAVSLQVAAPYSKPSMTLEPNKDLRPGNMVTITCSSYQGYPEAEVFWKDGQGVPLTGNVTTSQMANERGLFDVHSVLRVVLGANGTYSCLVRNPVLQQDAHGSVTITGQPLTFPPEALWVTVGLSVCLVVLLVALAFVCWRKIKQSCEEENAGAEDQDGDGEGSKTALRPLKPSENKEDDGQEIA
Procedure: as §1, §2

B1: AB2.1 (antibody)
heavy: QVQLVESGAEVKKPGASVKLSCKASGYTFSSYWMHWVRQAPGQRLEWMGEINPGNGHTNYNEKFKSRVTITVDKSASTAYMELSSLRSEDTAVYYCVADPRRPKVPTALFVYWGQGTLVTVSSCSTKGPSVFPLAPSSKSTSGGTAALGCLVKDYFPEPVTVSWNSGALTSGVHTFPAVLQSSGLYSLSSVVTVPSSSLGTQTYICNVNHKPSNTKVDKKV[here human IgG1 Fc without letters]
light: DIQMTQSPSSVSASVGDRVTISCRASQGIGTWLAWYQQKPGKAPRLLIYAASSLDSGVPSRFSASGSGTDFTLTISSLQPEDFATYYCQQAINFPITFGQGTRLEIKRSVAAPSVFIFPPSDEQLKSGTASVVCLLNNFYPREAKVQWKVDNALQSGNSQESVTEQDSKDSTYSLSSTLTLSKADYEKHKVYACEVTHQGLSSPVTKSFNRGEC
For B1, the “Ka” value [1] was 442000 M⁻¹ s⁻¹, the “Kd” value [1] was 0.00047 s⁻¹ and the “Ka” value [2] was 217000 M⁻¹ s⁻¹. The “Kd” value [2] was 0.00469 s⁻¹, the “Ka” value [3] was 480000 M⁻¹ s⁻¹ and the “Kd” value [3] was 0.000504 s⁻¹. For the same molecule, the “Ka” value [4] was 420000 M⁻¹ s⁻¹ and the “Kd” value [4] was 0.0178 s⁻¹.
